# Test results as given in the supplement of paper PMC4466236.
# Whole data set: some 33,000 sequences, median “E-score (dimensionless, -0.5 to 0.5)” near -0.058, cut for the highest 2% near 0.35. The list shows a part of the results.
# Tested on: MvaT
# Assay: PBM 8-mer E-score (mean of HK and ME arrays) (E-score (dimensionless, -0.5 to 0.5)); higher = stronger relative binding preference; most listed sequences are background and not binding sites
# In short: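 Reported values are rank-based E-scores, taken as the mean of two universal arrays and parsed with a custom script. Each 8-mer score falls between -0.5 and 0.5. The arrays, ME and HK, were double-stranded 60-mers with a constant 25-mer primer region and a variable 35-mer region covering all 8-mers. They were probed, by an earlier protocol, with full-length P. aeruginosa MvaT carrying an N-terminal glutathione S-transferase fusion.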
row,Sequence,PBM 8-mer E-score
1,GAGGGCAC,-0.242
2,ATTATAAG,0.432
3,GCTTAGGA,-0.121
4,AAAAGCGA,0.0963
5,GTCCTTGA,-0.179
6,CCTATGCG,-0.105
7,AACCGTCG,-0.0206
8,ATCCCGCA,0.000229
9,CATCGTGC,-0.0373
10,GCATCTTA,-0.0529
11,CGCAGAGC,-0.227
12,CTAACTGC,-0.0134
13,AACCCCCC,-0.244
14,ATGCCCCC,-0.267
15,GCAATGCA,0.0608
16,AGAGCCTG,-0.235
17,AGTCAGAC,-0.171
18,GAAAATGC,0.139
19,CCTATCAG,-0.115
20,AGCCGATC,-0.101
21,CAGATACC,-0.135
22,ATCAACGG,0.0684
23,ACTGGTTG,-0.0477
24,AGAGATAG,0.0665
25,GCCGGGCA,-0.299

row,Sequence,PBM 8-mer E-score
1,ATACTTGA,0.205
2,TCTAAGAA,0.0655
3,ACAATTAC,0.319
4,AGACCGCG,-0.289
5,ACTCGTAG,0.0626
6,GCCAGCGC,-0.226
7,AACCCCTA,-0.0403
8,CAGACTGC,-0.226
9,GTGAATGA,-0.0318
10,ACTTTGGG,0.0887
11,AAGGTACG,-0.241
12,ATCCACCG,-0.212
13,CCCTTGAA,-0.206
14,ACCGCTAT,-0.0105
15,TAAGGAGA,-0.0995
16,ATGTTTCG,0.184
17,CGTGGTAA,-0.119
18,ATTTGTGC,0.123
19,CCACCTGG,-0.304
20,CTCTAGTA,0.0412
21,AATTCTTC,0.0851
22,ACCACGAT,-0.0459
23,GCTCGTGA,-0.257
24,AGTAGTCC,0.0107
25,AAGTGGCG,-0.0358

row,Sequence,PBM 8-mer E-score
1,CATTCTGG,-0.0978
2,CTGAAGGA,-0.26
3,CTCTAACA,0.0091
4,CATTACAC,0.163
5,GGTTCTAA,-0.0459
6,CGATATGC,0.0342
7,GTCCACCA,-0.0903
8,CAGTTTGG,-0.0519
9,GCGTGAGC,-0.305
10,CCTCTTTC,-0.0319
11,CATACACA,0.111
12,AATTAAAA,0.373
13,ATTCCCGA,-0.0402
14,ACGTTTAC,0.0903
15,CGAATGGA,-0.122
16,TGTTTTAA,0.302
17,AGACTCAA,-0.0469
18,CTAAAACA,0.2
19,CCTCGGTC,-0.303
20,CATTAGAG,0.036
21,CTTAGAAC,0.124
22,AATGAATG,0.00614
23,GGGGCGGA,-0.221
24,TACACTCA,0.121
25,CATCCGGA,-0.0793

row,Sequence,PBM 8-mer E-score
1,ACCCACCA,-0.0403
2,ATGTCGAA,0.0966
3,AGCTATCC,-0.166
4,TAGTGTGA,0.145
5,AGTCGCGA,-0.0684
6,AAGTTACA,0.264
7,ACAAATGG,0.0586
8,CTGTACTA,0.118
9,CTACACGC,-0.107
10,AGAAGACC,-0.178
11,GATTAAAA,0.217
12,CACATGGC,-0.224
13,CATACCAC,0.0509
14,CCGCGTGC,-0.212
15,AGGTTCAT,-0.155
16,CGTAACTC,0.0244
17,ACACACCC,-0.0306
18,TGGATAAA,0.296
19,ACGTATCC,-0.0828
20,CGTTGTCC,-0.188
21,CCCTGGAA,-0.276
22,AGCACGGA,-0.111
23,TCACAAAA,0.0702
24,CTTGTGTC,-0.17
25,CCCGGGAC,-0.246

row,Sequence,PBM 8-mer E-score
1,CTATGGCC,-0.0652
2,CCTGCCGA,-0.182
3,TCCATAGA,-0.0508
4,GTACACTA,0.261
5,ATGCCAAG,-0.144
6,CCAACTCG,-0.00523
7,ACGGGTTA,0.0693
8,CCCGAGGC,-0.179
9,CAGCCCCA,-0.211
10,CCTATGAA,-0.166
11,GGATACAA,0.0627
12,GCAAGGTA,-0.00235
13,CAAAGGCG,-0.176
14,ATTGTGAA,0.2
15,TGGGGACA,-0.2
16,GAGTCTCA,-0.0066
17,AGACATTA,0.196
18,CCTTAAAC,0.0162
19,CGGACCGA,-0.16
20,CATTATTA,0.432
21,CACCGCGG,-0.201
22,ACCTCACA,-0.058
23,ACCTCGAG,-0.205
24,AATACGAC,0.0718
25,CGAGAGAG,-0.162

row,Sequence,PBM 8-mer E-score
1,GGCGGCCC,-0.363
2,AACATTCA,0.152
3,GTCGTTGA,-0.0908
4,CCATTAGG,-0.237
5,CGAACGAG,-0.0661
6,GGCCATAA,0.00337
7,CCGGATAC,-0.146
8,AATACATC,0.173
9,AGCGGCTC,-0.201
10,AATCTGGA,0.0976
11,CTTTCTAA,0.221
12,ATACCCCA,-0.0573
13,ACTTACTA,0.295
14,CGACTCAG,-0.144
15,AGGATCAA,-0.174
16,ATAATCTG,0.196
17,AAATCCCT,-0.0564
18,ACCCCACC,-0.268
19,CAAGATCA,0.122
20,GTGTCTAA,0.0832
21,ACGACTTG,-0.0579
22,ACGCAAAG,-0.0201
23,AAAGTCCT,-0.0507
24,AGACGAAG,-0.131
25,AAATGCAA,0.218

row,Sequence,PBM 8-mer E-score
1,CGACGATA,-0.015
2,AACGTGGA,-0.028
3,CATGAAGA,0.125
4,AAGGGAGT,-0.0241
5,GTCCTATA,0.0773
6,AAAGGGCA,0.0253
7,ATAAGACA,0.249
8,CAACTTCA,0.217
9,TGGGAACA,-0.0177
10,AGTTCTGA,0.144
11,CGCGTATC,-0.027
12,AGGTAATC,-0.121
13,ATTCCGGG,0.061
14,AGCCCACG,-0.235
15,ACAACAGC,-0.0433
16,CTGCTTAC,0.0204
17,CAGAACGC,-0.223
18,GAACCCGA,-0.178
19,GAATGAAC,0.0232
20,AGGTAACA,-0.115
21,GCAATCCC,0.0218
22,AAGCAGCG,-0.00654
